Five cell lines from the supplement of paper PMC4967469 can be followed below.

Holding throughout (experiment): Viability of human cancer cell lines after 72 h of drug (GDSC screen)
Compound in one test: Cc1sc2c(c1C)C(c1ccc(Cl)cc1)=N[C@@H](CC(=O)OC(C)(C)C)c1nnc(C)n1-2 [JQ1]
On the procedure: (§1)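 Human cancer cell lines in 384-well plates, medium with 10% serum, drug for 72 h over a 256-fold dose range (nine 2-fold or five 4-fold steps up to the top dose). Adherent lines were fixed and stained with the nucleic acid dye Syto60, suspension lines read with resazurin; signal relative to control wells, capped at 0 and 100%. One two-parameter sigmoid per drug and line, fitted in a mixed model over all curves with the slope shared within a line.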

Compound in the next test: O=C(/C=C/c1cccc(S(=O)(=O)Nc2ccccc2)c1)NO [Belinostat]
The settings on record: top dose 20 µM; top dose inferred. As to the method:
as §1

Compound in a further test: c1ccc2c(CCNc3ccc(Nc4ccncc4)cc3)c[nH]c2c1 [JNJ-26854165]
The settings on record: top dose 10 µM. On the procedure:
as §1

Compound in a further test: COCC[n+]1c2c(n(Cc3cnccn3)c1C)C(=O)c1ccccc1C2=O [YM155]
The settings on record: top dose 5.12 µM. As to the method: as §1

Compound in the next test: Cc1ccc(C(=O)N(CCCN)[C@@H](c2nc3cc(Cl)ccc3c(=O)n2Cc2ccccc2)C(C)C)cc1 [SB-715992]
The settings on record: top dose 0.128 µM; top dose inferred. As to the method: as §1

Compound in the next test: COC(=O)[C@H](CCSC)NC(=O)c1ccc(NC[C@@H](N)CS)cc1-c1ccccc1 [FTI-277]
Conditions: top dose 1.024 µM; top dose inferred. As to the method: as §1

Compound in the next test: CC(=O)O[C@@]12CO[C@@H]1C[C@H](O)[C@@]1(C)C(=O)[C@H](O)C3=C(C)[C@@H](OC(=O)[C@H](O)[C@@H](NC(=O)OC(C)(C)C)c4ccccc4)C[C@@](O)([C@@H](OC(=O)c4ccccc4)[C@H]21)C3(C)C [Docetaxel]
The settings on record: top dose 0.0125 µM. As to the method:
as §1

Compound in the next test: CN1CCN(c2ccc([N+](=O)[O-])c3no[n+]([O-])c23)CC1 [NSC-207895]
The settings on record: top dose 20 µM; top dose inferred. As to the method: as §1

Compound in another test: CCOc1nc(NC(=O)Cc2cc(OC)ccc2OC)cc(N)c1C#N [JNK Inhibitor VIII]
Conditions: top dose 10 µM; top dose inferred. As to the method:
as §1

Compound in the next test: C[C@]1(O)C[C@@H](c2nc(-c3ccc4ccc(-c5ccccc5)nc4c3)c3c(N)nccn32)C1 [OSI-906]
Conditions: top dose 2.56 µM; top dose inferred. On the procedure: as §1

Compound in a further test: CC1(C)CNc2cc(NC(=O)c3cccnc3NCc3ccncc3)ccc21 [AMG-706]
The settings on record: top dose 2 µM; top dose inferred. On the procedure: as §1

Setting [1] is: top dose 1 µM, screen: GDSC drug entry 1218, top dose inferred.
Where [2] appears, read: top dose 2.56 µM, screen: GDSC drug entry 163.

One may read the pIC50 as the negative decadic logarithm of the IC50, by convention in mol/L.

pIC50: −log10 of the molar value. IC50 is the fitted dose that halves viability relative to control wells, and lower means more sensitive; where the fit passes the top or lowest dose, that dose stands as a limit. AUC sums up the same curve from the lowest dose to the 256-fold higher top dose; values near 1 show little effect. For some assays here: A top dose marked as inferred is not printed in the source and was worked back from the curve model. For some assays here: An entry number marks a drug with two screens in the source, which often give different values.

With LN-18 (glioma, adherent), the AUC with JQ1 (setting [1]) came out at 0.993; in the test with JQ1 (setting [2]) it was 0.668; with Belinostat, 0.616; with JNJ-26854165 it was 0.953; with YM155, 0.092; with SB-715992, 0.989. Besides, the AUC with FTI-277 amounted to 0.989; with Docetaxel it was 0.863; with NSC-207895, 0.994; in the test with JNK Inhibitor VIII, 0.961; in the test with OSI-906 it was 0.992; with AMG-706, 0.963. Also, the pIC50 was below 6.00 with JQ1 (setting [1]); 6.37 with JQ1 (setting [2]); 5.61 with Belinostat; below 5.00 with JNJ-26854165; 7.66 with YM155; below 6.89 in the test with SB-715992. The pIC50 was below 5.99 with FTI-277; 8.12 with Docetaxel; below 4.70 with NSC-207895; below 5.00 with JNK Inhibitor VIII; below 5.59 with OSI-906; below 5.70 in the test with AMG-706.

Regarding “LOU-NH91 (lung squamous cell carcinoma, adherent)”, the AUC is 0.963 with JQ1 (setting [1]); 0.824 in the test with JQ1 (setting [2]); 0.501 with Belinostat; 0.906 with JNJ-26854165; 0.15 with YM155; 0.949 in the test with SB-715992. Besides, the AUC in the test with FTI-277 was determined as 0.961; with Docetaxel, 0.641; with NSC-207895 it was 0.978; with JNK Inhibitor VIII, 0.966; with OSI-906, 0.923; in the test with AMG-706, 0.938. The negative-log IC50 (pIC50) in the test with JQ1 (setting [1]) is below 6.00; with JQ1 (setting [2]), 5.77; with Belinostat it was 5.90; in the test with JNJ-26854165, below 5.00; with YM155, 7.64; with SB-715992 it was below 6.89. Besides, the negative-log IC50 (pIC50) is below 5.99 in the test with FTI-277; 8.70 with Docetaxel; below 4.70 with NSC-207895; below 5.00 with JNK Inhibitor VIII; below 5.59 with OSI-906; below 5.70 with AMG-706.

M059J (glioma, adherent): the AUC with JQ1 (setting [1]) is 0.983; with JQ1 (setting [2]) it was 0.574; with Belinostat it was 0.449; with JNJ-26854165, 0.831; in the test with YM155, 0.032; with SB-715992, 0.774. The AUC in the test with FTI-277 stood at 0.935; with Docetaxel, 0.676; with NSC-207895, 0.977; in the test with JNK Inhibitor VIII, 0.958; in the test with OSI-906, 0.985; with AMG-706, 0.979. Also, the pIC50 is below 6.00 with JQ1 (setting [1]); 6.59 with JQ1 (setting [2]); 6.05 with Belinostat; 5.15 with JNJ-26854165; above 7.70 with YM155; 7.26 with SB-715992. Further, the pIC50 in the test with FTI-277 was below 5.99; with Docetaxel, 8.60; in the test with NSC-207895, below 4.70; in the test with JNK Inhibitor VIII it was below 5.00; with OSI-906, below 5.59; in the test with AMG-706 it was below 5.70.

For MEL-JUSO (melanoma, adherent), the AUC was found to be 0.982 with JQ1 (setting [1]); 0.804 with JQ1 (setting [2]); 0.399 with Belinostat; 0.882 with JNJ-26854165; 0.03 with YM155; 0.71 in the test with SB-715992. In addition, the AUC in the test with FTI-277 came out at 0.656; with Docetaxel, 0.811; with NSC-207895, 0.736; with JNK Inhibitor VIII, 0.98; in the test with OSI-906, 0.729; in the test with AMG-706 it was 0.924. Further, the pIC50 with JQ1 (setting [1]) is below 6.00; with JQ1 (setting [2]), 5.84; with Belinostat, 6.20; with JNJ-26854165 it was below 5.00; in the test with YM155, above 7.70; with SB-715992, 7.47. Also, the pIC50 was 8.12 with Docetaxel; 5.19 in the test with NSC-207895; below 5.00 with JNK Inhibitor VIII; 6.11 with OSI-906; below 5.70 with AMG-706.

As for MFE-280 (endometrium, adherent), the AUC was 0.934 with JQ1 (setting [1]); 0.867 in the test with JQ1 (setting [2]); 0.431 in the test with Belinostat; 0.977 with JNJ-26854165; 0.041 in the test with YM155; 0.917 with SB-715992. Moreover, the AUC with FTI-277 is 0.979; in the test with Docetaxel, 0.961; with NSC-207895, 0.942; with JNK Inhibitor VIII, 0.977; with OSI-906, 0.981; with AMG-706, 0.976. The pIC50 with JQ1 (setting [1]) was below 6.00; with JQ1 (setting [2]), below 5.59; in the test with Belinostat, 6.11; with JNJ-26854165, below 5.00; in the test with YM155, above 7.70; with SB-715992, below 6.89. In addition, the pIC50 in the test with FTI-277 was below 5.99; with Docetaxel it was below 7.90; with NSC-207895 it was below 4.70; in the test with JNK Inhibitor VIII, below 5.00; in the test with OSI-906, below 5.59; with AMG-706 it was below 5.70.
